From PMC11799438 come the findings set out here.

Protein sequences, listed by entry. Tags and fused reporters are not part of them. Lines headed by an entry give the natural chain unless they say otherwise; changes in a name come on top.
UniProt P09874: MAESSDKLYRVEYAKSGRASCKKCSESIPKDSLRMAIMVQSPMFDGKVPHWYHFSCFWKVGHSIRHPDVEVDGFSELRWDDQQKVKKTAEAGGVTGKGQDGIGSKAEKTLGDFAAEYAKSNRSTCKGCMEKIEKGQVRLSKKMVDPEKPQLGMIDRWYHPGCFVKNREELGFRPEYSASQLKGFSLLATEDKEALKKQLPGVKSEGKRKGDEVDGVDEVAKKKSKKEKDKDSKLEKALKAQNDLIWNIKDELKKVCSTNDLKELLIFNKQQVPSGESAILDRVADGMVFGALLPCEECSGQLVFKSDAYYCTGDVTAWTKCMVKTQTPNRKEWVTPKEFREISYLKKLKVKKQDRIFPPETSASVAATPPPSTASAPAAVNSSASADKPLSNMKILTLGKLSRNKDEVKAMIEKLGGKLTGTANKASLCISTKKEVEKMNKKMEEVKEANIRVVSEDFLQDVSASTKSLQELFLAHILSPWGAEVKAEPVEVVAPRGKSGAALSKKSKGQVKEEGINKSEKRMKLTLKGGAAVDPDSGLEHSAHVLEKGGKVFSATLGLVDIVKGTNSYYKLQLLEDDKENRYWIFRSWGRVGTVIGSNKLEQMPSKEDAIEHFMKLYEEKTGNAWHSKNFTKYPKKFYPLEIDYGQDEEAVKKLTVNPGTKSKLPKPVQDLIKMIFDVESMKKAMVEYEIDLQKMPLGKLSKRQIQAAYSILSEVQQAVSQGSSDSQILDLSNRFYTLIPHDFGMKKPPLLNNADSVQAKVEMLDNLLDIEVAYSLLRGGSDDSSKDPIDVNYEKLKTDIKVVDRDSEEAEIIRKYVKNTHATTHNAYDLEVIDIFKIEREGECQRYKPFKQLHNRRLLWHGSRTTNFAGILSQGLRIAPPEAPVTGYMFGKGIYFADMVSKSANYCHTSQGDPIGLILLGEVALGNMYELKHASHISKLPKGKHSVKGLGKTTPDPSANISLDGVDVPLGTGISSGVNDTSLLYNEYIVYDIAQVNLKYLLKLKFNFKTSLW

These are yes or no findings as the source states them, for the method shown. For some of these results: In cells and extracts the contact can be indirect. Some binding calls cover weakened binding; strength is not graded here. Tags and fused reporters may be left off the sequences shown.

The target in assay [1] is T1, GFP–RECQL4 (human) (UniProt O94761).
T1 sequence: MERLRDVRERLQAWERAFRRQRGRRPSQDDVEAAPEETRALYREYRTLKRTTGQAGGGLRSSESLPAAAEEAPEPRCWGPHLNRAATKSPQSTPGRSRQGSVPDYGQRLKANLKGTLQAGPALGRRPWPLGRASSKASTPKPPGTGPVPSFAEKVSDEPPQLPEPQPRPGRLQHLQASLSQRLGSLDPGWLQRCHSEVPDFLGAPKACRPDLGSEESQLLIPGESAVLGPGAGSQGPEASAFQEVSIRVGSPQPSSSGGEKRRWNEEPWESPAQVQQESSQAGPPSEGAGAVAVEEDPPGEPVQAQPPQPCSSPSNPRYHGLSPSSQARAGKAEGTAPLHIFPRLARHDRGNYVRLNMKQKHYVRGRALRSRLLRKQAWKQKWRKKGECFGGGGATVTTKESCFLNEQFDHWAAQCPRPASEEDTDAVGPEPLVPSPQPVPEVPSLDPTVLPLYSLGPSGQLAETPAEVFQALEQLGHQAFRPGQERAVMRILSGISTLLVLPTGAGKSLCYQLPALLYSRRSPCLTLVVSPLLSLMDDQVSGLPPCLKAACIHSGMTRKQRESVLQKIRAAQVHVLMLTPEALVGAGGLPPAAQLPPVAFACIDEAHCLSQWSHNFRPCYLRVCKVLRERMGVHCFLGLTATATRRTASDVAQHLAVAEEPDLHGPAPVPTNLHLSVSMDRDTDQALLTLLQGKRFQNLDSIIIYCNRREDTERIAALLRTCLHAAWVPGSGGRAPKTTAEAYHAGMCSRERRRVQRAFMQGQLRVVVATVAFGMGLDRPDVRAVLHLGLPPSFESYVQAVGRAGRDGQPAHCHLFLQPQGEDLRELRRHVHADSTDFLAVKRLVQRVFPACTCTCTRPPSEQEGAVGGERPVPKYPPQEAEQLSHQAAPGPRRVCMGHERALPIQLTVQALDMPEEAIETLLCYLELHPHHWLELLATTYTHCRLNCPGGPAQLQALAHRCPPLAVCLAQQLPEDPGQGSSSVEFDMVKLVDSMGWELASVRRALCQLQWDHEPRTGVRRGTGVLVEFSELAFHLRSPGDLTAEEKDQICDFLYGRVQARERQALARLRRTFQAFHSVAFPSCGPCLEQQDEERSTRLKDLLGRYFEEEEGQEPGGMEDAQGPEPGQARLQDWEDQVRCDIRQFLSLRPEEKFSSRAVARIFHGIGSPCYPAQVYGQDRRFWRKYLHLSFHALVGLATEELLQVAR
Nature of the assay: co-IP; GFP-RECQL4 IP from PARPi (olaparib)-treated cells before and after IR.

In assay [2] the target is T1, GFP–RECQL4 (human). Kind of assay: co-IP; GFP-RECQL4 IP from WT cells before and after IR (also with Mirin); blots for XRCC1, PARP1 and LIG3.
Assay [3] concerns the target T2, Flag-tagged full-length RECQL4 (human) (UniProt O94761).
T2 sequence: T1 sequence
Nature of the assay: co-IP; U2OS cells with Flag-RECQL4, with or without 10 Gy IR and 5 µM olaparib (3 h); anti-Flag beads, blot for endogenous PARP1; benzonase-treated.

The target in assay [4] is T3, purified recombinant His–RECQL4 (human) (UniProt O94761).
T3 sequence: T1 sequence
Nature of the assay: pull-down; purified recombinant His-RECQL4 bound to Ni-NTA beads, soluble PARP1; Ni-NTA alone as control; western blot with anti-His and anti-PARP1; both purified.

In assay [5] the target is T2, Flag-tagged full-length RECQL4 (human). Kind of assay: co-IP; HEK293T cells co-transfected with V5-tagged PARP1 (full-length or fragments) with or without Flag-RECQL4; IP with anti-Flag beads, blot with anti-V5.

Regarding “endogenous PARP1 (from UniProt P09874 1-1014)”, the binding result is “no binding (condition: PARPi-treated cells)” with GFP–RECQL4 (human) [1], “binds” with GFP–RECQL4 (human) [2] and “binds” in assay [3].

As to “active PARP1 enzyme (Active Motif 81737) (from UniProt P09874 1-1014)”, the binding entry in assay [4] is given as “binds”. With “V5-tagged PARP1 domain C (amino acids 1–461) (from UniProt P09874 1-461) (domain or fragment)”, the binding entry in assay [5] is “binds”. As for “V5-tagged PARP1 domain G (aa 662–1,014) (from UniProt P09874 662-1014) (domain or fragment)”, the binding entry in assay [5] is “binds”.

In the case of “V5-tagged full-length PARP1 (from UniProt P09874 1-1014)”, in assay [5], the binding result is listed as “binds”.
